# In PubChem BioAssay (Tox21):
# Where “and” joins values, the source holds several entries; their conditions need not be identical. Identical values can stand only once. This list was built around the results that the source calls inconclusive (neither active nor inactive); the mix of calls is not that of the screen. For some of these results: Potencies of inconclusive entries are doubtful fits and often do not repeat. Calls of active or inactive are those of the source. The call rests on the fitted dose curve; in most records, active means well fitted curve in the direction sought with a large enough effect in the repeat runs; inconclusive means weak or mixed curves; inactive means no such curve, though single readings can be large; an effect the other way counts as inactive or inconclusive.
# How the values were obtained:
# [1] = biological target: Nuclear receptor subfamily 1 group I member 2 (Rattus norvegicus) (UniProt Q9R1A7); experiment: Rat pregnane X receptor (rPXR) activation by small molecules, qHTS assay (AID 1346983); conditions: rPXR luciferase reporter cells, One-Glo luminescence, 24 h; max activation: hits give high values; further: on the % scale 0 is the no-effect control and ±100 the full control effect; nearly all actives have a fitted effect of over 20% in size
# Chain of UniProt Q9R1A7 (Q9R1A7 whole entry, looked up): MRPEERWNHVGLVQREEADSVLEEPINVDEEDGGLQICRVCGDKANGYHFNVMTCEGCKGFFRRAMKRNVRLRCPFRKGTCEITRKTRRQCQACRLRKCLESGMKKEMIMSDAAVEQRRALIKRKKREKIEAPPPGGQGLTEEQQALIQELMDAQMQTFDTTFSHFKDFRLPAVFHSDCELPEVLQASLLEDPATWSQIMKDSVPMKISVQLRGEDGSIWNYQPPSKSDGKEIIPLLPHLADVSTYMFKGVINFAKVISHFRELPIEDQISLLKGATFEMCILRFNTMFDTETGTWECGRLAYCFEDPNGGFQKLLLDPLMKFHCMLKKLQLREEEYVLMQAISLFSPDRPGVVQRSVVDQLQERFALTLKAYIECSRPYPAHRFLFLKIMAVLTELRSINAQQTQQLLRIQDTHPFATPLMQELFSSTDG
# How it was run: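 Cell-based rPXR luciferase reporter assay, 2,000 cells per well, rested 5hr at 37 C before compound addition in DMSO, then 24 hr at 37 C. One-Glo reagent was added and luminescence read after 30 min at room temperature.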
# [2] = biological target: Nuclear receptor subfamily 1 group I member 2 (Homo sapiens) (UniProt O75469); experiment: Human pregnane X receptor (PXR) activation by small molecules, qHTS assay (AID 1346985); conditions: DPX-2 HepG2 CYP3A4-luciferase, 24 h; series mostly up to 38.3 µM; further: nearly all actives have a fitted effect of over 40% in size; further: potency means the concentration at half of the fitted maximal effect; on activation: on the % scale 0 is the no-effect control and ±100 the full control effect
# How it was run: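 DPX-2 cells (HepG2 co-transfected with a PXR response element and a CYP3A4-promoter luciferase construct) were seeded at 2,000 per well, rested 5 hr at 37C, then exposed to DMSO-dissolved compounds for 24 hr. Activation was read as luciferase luminescence.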
# [3] = biological target: Cytochrome P450 2D6 (Homo sapiens) (UniProt P10635); experiment: Cytochrome P450 Family 2 Subfamily D Member 6 (CYP2D6) small molecule antagonists: luciferase reporter qHTS assay (AID 1671196); conditions: P450-Glo CYP2D6 enzyme assay, luciferin luminescence, 1 h; series mostly up to 115 µM; further: nearly all actives have a fitted effect of over 50% in size; further: potency means the concentration at half of the fitted maximal effect
# Chain of UniProt P10635 (P10635 whole entry, looked up): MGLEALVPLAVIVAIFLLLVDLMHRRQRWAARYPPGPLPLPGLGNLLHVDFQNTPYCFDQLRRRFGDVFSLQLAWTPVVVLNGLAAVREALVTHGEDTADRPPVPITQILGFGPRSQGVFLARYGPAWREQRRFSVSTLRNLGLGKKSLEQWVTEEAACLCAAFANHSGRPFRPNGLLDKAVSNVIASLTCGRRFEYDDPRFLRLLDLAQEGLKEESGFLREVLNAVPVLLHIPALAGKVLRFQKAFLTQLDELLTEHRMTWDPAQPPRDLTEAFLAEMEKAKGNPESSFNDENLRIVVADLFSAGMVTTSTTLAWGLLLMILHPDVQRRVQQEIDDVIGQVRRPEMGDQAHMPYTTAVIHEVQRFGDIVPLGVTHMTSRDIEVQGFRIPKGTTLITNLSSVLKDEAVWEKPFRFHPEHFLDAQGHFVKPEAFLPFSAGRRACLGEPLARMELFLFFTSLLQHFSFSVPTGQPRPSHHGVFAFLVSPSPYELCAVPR
# How it was run: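 Inhibition of CYP2D6 was gauged by loss of luminescence, since light produced tracks the luciferin generated from a proluciferin substrate. A 10 min room-temperature preincubation preceded 1 h NADPH-supported turnover.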
# [4] = biological target: Voltage-gated inwardly rectifying potassium channel KCNH2 (Homo sapiens) (UniProt Q12809); experiment: Human Ether-a-go-go-Related Gene (hERG) channel small molecule antagonists: fluorescence cell-based qHTS assay (AID 1671200); conditions: hERG-U2OS cells, FluxOR thallium flux fluorescence; series mostly up to 76.8 µM; further: potency means the concentration at half of the fitted maximal effect; nearly all actives have a fitted effect of over 50% in size
# Chain of UniProt Q12809 (Q12809 whole entry, looked up): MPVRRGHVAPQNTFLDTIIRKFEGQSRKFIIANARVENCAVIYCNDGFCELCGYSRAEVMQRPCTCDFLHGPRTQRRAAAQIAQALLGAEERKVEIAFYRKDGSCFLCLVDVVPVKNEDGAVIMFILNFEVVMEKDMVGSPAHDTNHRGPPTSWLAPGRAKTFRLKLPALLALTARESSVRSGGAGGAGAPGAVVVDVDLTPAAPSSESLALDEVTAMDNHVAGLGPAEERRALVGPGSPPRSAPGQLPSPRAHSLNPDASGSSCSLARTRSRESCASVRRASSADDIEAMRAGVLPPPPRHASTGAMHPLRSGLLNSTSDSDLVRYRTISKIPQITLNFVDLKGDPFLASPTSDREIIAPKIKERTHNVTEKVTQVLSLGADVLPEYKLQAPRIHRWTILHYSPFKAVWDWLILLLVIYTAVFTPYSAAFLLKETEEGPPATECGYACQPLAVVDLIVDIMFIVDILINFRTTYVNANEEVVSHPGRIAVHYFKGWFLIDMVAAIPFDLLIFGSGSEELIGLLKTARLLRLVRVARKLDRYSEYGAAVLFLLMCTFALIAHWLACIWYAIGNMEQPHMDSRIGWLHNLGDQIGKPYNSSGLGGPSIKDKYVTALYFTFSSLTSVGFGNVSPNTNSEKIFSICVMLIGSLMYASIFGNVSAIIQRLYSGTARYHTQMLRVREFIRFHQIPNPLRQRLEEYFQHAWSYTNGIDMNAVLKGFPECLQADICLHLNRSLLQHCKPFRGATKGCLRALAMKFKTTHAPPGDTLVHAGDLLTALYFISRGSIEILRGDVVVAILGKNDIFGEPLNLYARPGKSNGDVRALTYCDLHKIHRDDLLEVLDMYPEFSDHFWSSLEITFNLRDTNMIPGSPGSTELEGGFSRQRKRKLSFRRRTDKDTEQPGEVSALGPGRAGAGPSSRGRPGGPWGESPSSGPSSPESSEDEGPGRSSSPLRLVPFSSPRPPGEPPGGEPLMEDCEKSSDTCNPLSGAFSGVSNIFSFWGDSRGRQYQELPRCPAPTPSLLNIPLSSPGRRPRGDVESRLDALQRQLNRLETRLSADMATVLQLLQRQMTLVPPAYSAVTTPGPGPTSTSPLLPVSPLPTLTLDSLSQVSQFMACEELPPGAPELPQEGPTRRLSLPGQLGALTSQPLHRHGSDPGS
# How it was run: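 Quantitative HTS in hERG-U2OS cells: thallium entry through the channel reports activity, read as continuous 480/540 nm fluorescence over 2 min after stimulus addition.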
# [5] = biological target: Cytochrome P450 2C9 (Homo sapiens) (UniProt P11712); experiment: Cytochrome P450 Family 2 Subfamily C Member 9 (CYP2C9) small molecule antagonists: luciferase reporter qHTS assay (AID 1671198); conditions: P450-Glo CYP2C9 enzyme assay, luciferin luminescence; series mostly up to 115 µM; further: potency means the concentration at half of the fitted maximal effect; nearly all actives have a fitted effect of over 50% in size
# Chain of UniProt P11712 (P11712 whole entry, looked up): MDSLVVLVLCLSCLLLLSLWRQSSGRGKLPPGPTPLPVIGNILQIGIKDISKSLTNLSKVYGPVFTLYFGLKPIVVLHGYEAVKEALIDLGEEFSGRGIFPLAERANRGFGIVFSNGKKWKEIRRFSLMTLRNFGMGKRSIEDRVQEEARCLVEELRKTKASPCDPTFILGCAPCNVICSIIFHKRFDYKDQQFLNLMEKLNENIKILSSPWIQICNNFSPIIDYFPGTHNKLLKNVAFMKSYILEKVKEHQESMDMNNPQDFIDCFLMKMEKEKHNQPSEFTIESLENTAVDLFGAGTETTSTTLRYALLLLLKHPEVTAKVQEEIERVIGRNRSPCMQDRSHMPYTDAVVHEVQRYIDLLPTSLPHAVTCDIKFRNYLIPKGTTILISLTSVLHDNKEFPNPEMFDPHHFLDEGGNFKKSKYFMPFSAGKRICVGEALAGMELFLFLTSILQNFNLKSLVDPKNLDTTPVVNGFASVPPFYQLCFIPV
# How it was run: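 CYP2C9 activity was measured with a P450-Glo proluciferin substrate. Enzyme–substrate mix was held with compound for 10 min at room temperature, then NADPH regeneration solution was added for 1 h at 37C. Luciferin product was read as luminescence.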
# [6] = biological target: Cytochrome P450 1A2 (Homo sapiens) (UniProt P05177); experiment: Cytochrome P450 Family 1 Subfamily A Member 2 (CYP1A2) small molecule antagonists: luciferase reporter qHTS assay (AID 1671199); conditions: P450-Glo CYP1A2 enzyme, luciferin luminescence, 1 h; series mostly up to 115 µM; further: potency means the concentration at half of the fitted maximal effect; nearly all actives have a fitted effect of over 50% in size
# Chain of UniProt P05177 (P05177 whole entry, looked up): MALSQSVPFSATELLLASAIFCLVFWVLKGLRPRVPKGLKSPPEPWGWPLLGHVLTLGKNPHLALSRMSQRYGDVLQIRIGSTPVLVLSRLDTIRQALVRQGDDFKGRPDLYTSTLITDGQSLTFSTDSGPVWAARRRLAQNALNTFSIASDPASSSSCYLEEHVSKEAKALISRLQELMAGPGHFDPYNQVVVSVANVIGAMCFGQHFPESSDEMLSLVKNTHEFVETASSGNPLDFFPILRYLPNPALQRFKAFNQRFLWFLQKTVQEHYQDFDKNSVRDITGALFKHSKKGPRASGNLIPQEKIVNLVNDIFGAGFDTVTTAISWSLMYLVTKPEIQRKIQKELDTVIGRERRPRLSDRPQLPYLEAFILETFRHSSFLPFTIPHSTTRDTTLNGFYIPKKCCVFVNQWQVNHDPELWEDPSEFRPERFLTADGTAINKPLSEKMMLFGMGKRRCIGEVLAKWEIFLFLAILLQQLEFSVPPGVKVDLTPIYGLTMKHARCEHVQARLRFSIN
# How it was run: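 Signal from luciferin formed by CYP1A2 from a proluciferin substrate is read as luminescence, expressed in relative luminescence units. Compounds sit with enzyme 10 min, NADPH-driven reaction runs 1 h, all at room temperature.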
# [7] = biological target: Cytochrome P450 3A4 (Homo sapiens) (UniProt P08684); experiment: Cytochrome P450 Family 3 Subfamily A Member 4 (CYP3A4) small molecule antagonists: luciferase reporter qHTS assay (AID 1671201); conditions: P450-Glo CYP3A4 enzyme, luciferin luminescence, 1 h; series mostly up to 115 µM
# Chain of UniProt P08684 (P08684 whole entry, looked up): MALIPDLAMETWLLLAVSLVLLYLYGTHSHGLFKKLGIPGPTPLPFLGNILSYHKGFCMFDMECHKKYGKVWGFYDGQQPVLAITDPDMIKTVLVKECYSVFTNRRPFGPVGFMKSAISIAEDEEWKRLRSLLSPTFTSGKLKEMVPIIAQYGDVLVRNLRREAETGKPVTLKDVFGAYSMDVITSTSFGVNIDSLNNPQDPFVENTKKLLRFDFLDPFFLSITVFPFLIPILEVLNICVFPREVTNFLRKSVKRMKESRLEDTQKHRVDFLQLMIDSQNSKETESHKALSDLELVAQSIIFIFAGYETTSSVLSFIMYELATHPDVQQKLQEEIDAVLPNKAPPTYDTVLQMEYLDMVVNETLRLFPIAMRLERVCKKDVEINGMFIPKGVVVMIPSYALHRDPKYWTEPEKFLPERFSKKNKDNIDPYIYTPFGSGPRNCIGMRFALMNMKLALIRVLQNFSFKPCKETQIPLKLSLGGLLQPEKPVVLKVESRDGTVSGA
# How it was run: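 Inhibition of CYP3A4 is measured as loss of light: the enzyme converts a proluciferin substrate to luciferin, detected luminescently. Reaction ran 1 h at room temperature with NADPH regeneration after a 10 min compound preincubation.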
# Tags describe the fitted curve by direction and shape.
compound,measurement,setting,value
Nc1c(N=Nc2ccc(-c3ccc(N=Nc4cc(S(=O)(=O)O)c5ccccc5c4N)cc3)cc2)cc(S(=O)(=O)O)c2ccccc12,max activation,[1],inactive: -6.72%
same,Potency,[2],inactive
same,Potency,[3],active: 35.6 µM
same,Potency,[4],"inconclusive: 43.6 µM [inhibitor, partial curve, poor fit]"
NCCCC(O)(P(=O)(O)O)P(=O)(O)O,max activation,[1],inactive: -1.25%
O=C(O)CCC(=O)C(=O)O,Potency,[2],inactive
Cc1ccc(O)c(-n2nc3ccccc3n2)c1,Potency,[2],active: 14.1 µM
same,Potency,[4],"inconclusive: 54.5 µM [inhibitor, single point] and inconclusive: 49 µM [inhibitor, partial curve, poor fit]"
O=C=NCCCCCCN=C=O,Potency,[3],"inconclusive: 64.4 µM [inhibitor, partial curve]"
same,Potency,[5],"inconclusive: 69.4 µM [inhibitor, partial curve] and inconclusive: 72.3 µM [inhibitor, partial curve]"
same,Potency,[6],"inconclusive: 40.6 µM [inhibitor, partial curve]"
same,Potency,[7],"inconclusive: 72.3 µM [inhibitor, partial curve]"
CCCCC(CC)C(=O)OCCOCCOCCOC(=O)C(CC)CCCC (stereo unspecified),Potency,[3],"inconclusive: 71.8 µM [inhibitor, single point]"
same,Potency,[6],"inconclusive: 40.4 µM [inhibitor, partial curve] and inconclusive: 35.6 µM [inhibitor, partial curve]"
CCCCCCC(C)(C)C(=O)O,Potency,[3],inactive
same,Potency,[6],"inconclusive: 50.2 µM [inhibitor, partial curve]"
